Assay results: the supplement of paper PMC6531468
The list shows a part of the results. These are enrichments in a pooled selection; single values are uncertain. Scores sum up all selected molecules that hold the word; the word was not tested alone.

Tests used:
Assay in all cases: 6-mer SELEX enrichment z-score vs GST control; IMP3 is the RNA-binding protein IGF2BP3; higher = more enriched by binding
IMP3 KH1-4 = conditions: construct: KH1-4 (164-579); SELEX round: R4
Method: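 SELEX-seq with GST-tagged IMP3 KH1-4 (Pro164-Lys579) and an N40 RNA pool, round 4. 6-mer z-score of sequence-tag enrichment normalised to the corresponding GST SELEX round; RNA k-mers written as DNA (T for U).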

IMP3 RRM1-2 = conditions: construct: RRM1-2 (1-163); SELEX round: R2
Chain of IMP3 RRM1-2 (chain, as listed by the source): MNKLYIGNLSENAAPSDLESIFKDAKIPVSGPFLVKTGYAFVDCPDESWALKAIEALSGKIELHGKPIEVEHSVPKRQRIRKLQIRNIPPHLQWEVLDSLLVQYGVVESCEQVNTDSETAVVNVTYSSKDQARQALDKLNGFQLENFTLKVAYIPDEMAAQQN
Method: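 SELEX-seq with GST-tagged IMP3 RRM1-2 (Met1-Asn163) and an N40 RNA pool, round 2. 6-mer enrichment z-score normalised to GST SELEX. RNA written as DNA (T = U).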

IMP3 full-length = IMP3 full-length (UniProt O00425); conditions: construct: FL IMP3 (1-579); SELEX round: R4
Chain of UniProt O00425 (O00425 whole entry): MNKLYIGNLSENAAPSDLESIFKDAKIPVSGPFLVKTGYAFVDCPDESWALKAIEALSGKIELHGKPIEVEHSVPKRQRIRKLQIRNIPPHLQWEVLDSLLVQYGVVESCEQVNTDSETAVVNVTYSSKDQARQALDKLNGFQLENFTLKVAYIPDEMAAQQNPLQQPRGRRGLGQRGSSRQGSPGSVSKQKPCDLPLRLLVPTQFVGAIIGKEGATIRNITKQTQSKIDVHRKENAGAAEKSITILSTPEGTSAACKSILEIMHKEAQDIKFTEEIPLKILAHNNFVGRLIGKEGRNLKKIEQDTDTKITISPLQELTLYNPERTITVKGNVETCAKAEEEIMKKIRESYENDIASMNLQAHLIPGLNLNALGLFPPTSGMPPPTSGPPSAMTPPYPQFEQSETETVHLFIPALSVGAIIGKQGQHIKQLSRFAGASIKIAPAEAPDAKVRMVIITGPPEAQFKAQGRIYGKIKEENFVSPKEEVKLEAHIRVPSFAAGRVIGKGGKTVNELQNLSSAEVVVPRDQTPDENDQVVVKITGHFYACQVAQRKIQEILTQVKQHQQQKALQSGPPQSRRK
Method: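 SELEX-seq with GST-tagged full-length IMP3 and an N40 RNA pool, round 4. Each 6-mer is scored as an enrichment z-score of sequence tags containing it, normalised to the matching GST SELEX round. RNA written as DNA (T = U).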

IMP3 KH3-4 = conditions: construct: KH3-4 (377-579); SELEX round: R4
Chain of IMP3 KH3-4 (chain, as listed by the source): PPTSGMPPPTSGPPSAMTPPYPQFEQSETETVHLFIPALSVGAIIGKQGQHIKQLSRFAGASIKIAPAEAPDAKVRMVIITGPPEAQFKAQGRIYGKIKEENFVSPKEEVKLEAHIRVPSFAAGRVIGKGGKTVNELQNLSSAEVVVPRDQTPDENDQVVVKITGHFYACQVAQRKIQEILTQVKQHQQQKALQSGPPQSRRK
Method: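 SELEX-seq with GST-tagged IMP3 KH3-4 (Pro377-Lys579) and an N40 RNA pool, round 4. 6-mer z-score of sequence-tag enrichment normalised to the corresponding GST SELEX round; RNA k-mers written as DNA (T for U).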

Chain of IMP3 KH1-4 (chain, as listed by the source): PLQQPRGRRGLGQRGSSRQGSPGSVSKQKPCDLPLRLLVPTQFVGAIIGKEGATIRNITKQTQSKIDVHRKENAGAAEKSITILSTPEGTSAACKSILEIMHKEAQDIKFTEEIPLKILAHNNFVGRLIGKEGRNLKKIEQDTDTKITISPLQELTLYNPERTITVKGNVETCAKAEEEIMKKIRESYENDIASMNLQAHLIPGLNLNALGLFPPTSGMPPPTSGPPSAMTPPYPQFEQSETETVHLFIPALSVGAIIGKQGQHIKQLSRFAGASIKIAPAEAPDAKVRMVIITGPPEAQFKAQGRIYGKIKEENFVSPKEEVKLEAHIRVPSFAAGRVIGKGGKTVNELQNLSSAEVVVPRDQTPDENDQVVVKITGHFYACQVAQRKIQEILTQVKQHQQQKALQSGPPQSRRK

Sequence: CACAAT
- 6-mer SELEX enrichment z-score (IMP3 KH1-4): 1.97
- 6-mer SELEX enrichment z-score (IMP3 RRM1-2): 1.87
- 6-mer SELEX enrichment z-score (IMP3 full-length): 2.01
- 6-mer SELEX enrichment z-score (IMP3 KH3-4): 1.42

Sequence: GCAAGC
- 6-mer SELEX enrichment z-score (IMP3 KH1-4): -0.039
- 6-mer SELEX enrichment z-score (IMP3 RRM1-2): 0.421
- 6-mer SELEX enrichment z-score (IMP3 full-length): 0.7
- 6-mer SELEX enrichment z-score (IMP3 KH3-4): -0.179

Sequence: TACTGA
- 6-mer SELEX enrichment z-score (IMP3 KH1-4): 0.342
- 6-mer SELEX enrichment z-score (IMP3 RRM1-2): -0.485
- 6-mer SELEX enrichment z-score (IMP3 full-length): -0.408
- 6-mer SELEX enrichment z-score (IMP3 KH3-4): 0.367

Sequence: GGGGGT
- 6-mer SELEX enrichment z-score (IMP3 KH1-4): 0.519
- 6-mer SELEX enrichment z-score (IMP3 RRM1-2): 0.371
- 6-mer SELEX enrichment z-score (IMP3 full-length): 0.433
- 6-mer SELEX enrichment z-score (IMP3 KH3-4): 0.788

Sequence: CCAAGG
- 6-mer SELEX enrichment z-score (IMP3 KH1-4): -0.884
- 6-mer SELEX enrichment z-score (IMP3 RRM1-2): -0.543
- 6-mer SELEX enrichment z-score (IMP3 full-length): -0.568
- 6-mer SELEX enrichment z-score (IMP3 KH3-4): -1.01

Sequence: TTACCG
- 6-mer SELEX enrichment z-score (IMP3 KH1-4): -0.046
- 6-mer SELEX enrichment z-score (IMP3 RRM1-2): -0.354
- 6-mer SELEX enrichment z-score (IMP3 full-length): -0.271
- 6-mer SELEX enrichment z-score (IMP3 KH3-4): -0.236

Sequence: CGTTGG
- 6-mer SELEX enrichment z-score (IMP3 KH1-4): -0.389
- 6-mer SELEX enrichment z-score (IMP3 RRM1-2): 0.29
- 6-mer SELEX enrichment z-score (IMP3 full-length): 0.038
- 6-mer SELEX enrichment z-score (IMP3 KH3-4): -0.29

Sequence: AGCACG
- 6-mer SELEX enrichment z-score (IMP3 KH1-4): 0.238
- 6-mer SELEX enrichment z-score (IMP3 RRM1-2): 0.454
- 6-mer SELEX enrichment z-score (IMP3 full-length): 0.861
- 6-mer SELEX enrichment z-score (IMP3 KH3-4): -0.191

Sequence: AGCGGC
- 6-mer SELEX enrichment z-score (IMP3 KH1-4): 1.58
- 6-mer SELEX enrichment z-score (IMP3 RRM1-2): 0.142
- 6-mer SELEX enrichment z-score (IMP3 full-length): 2.14
- 6-mer SELEX enrichment z-score (IMP3 KH3-4): 1.7

Sequence: GTAGTA
- 6-mer SELEX enrichment z-score (IMP3 KH1-4): -0.543
- 6-mer SELEX enrichment z-score (IMP3 RRM1-2): 0.097
- 6-mer SELEX enrichment z-score (IMP3 full-length): -0.321
- 6-mer SELEX enrichment z-score (IMP3 KH3-4): -0.364

Sequence: TCCCGG
- 6-mer SELEX enrichment z-score (IMP3 KH1-4): -0.642
- 6-mer SELEX enrichment z-score (IMP3 RRM1-2): -0.261
- 6-mer SELEX enrichment z-score (IMP3 full-length): -0.137
- 6-mer SELEX enrichment z-score (IMP3 KH3-4): -0.761

Sequence: TCACAT
- 6-mer SELEX enrichment z-score (IMP3 KH1-4): 1.73
- 6-mer SELEX enrichment z-score (IMP3 RRM1-2): 2.3
- 6-mer SELEX enrichment z-score (IMP3 full-length): 2.4
- 6-mer SELEX enrichment z-score (IMP3 KH3-4): 1.22

Sequence: TCGCGC
- 6-mer SELEX enrichment z-score (IMP3 KH1-4): -0.711
- 6-mer SELEX enrichment z-score (IMP3 RRM1-2): 0.34
- 6-mer SELEX enrichment z-score (IMP3 full-length): 0.047
- 6-mer SELEX enrichment z-score (IMP3 KH3-4): -0.652

Sequence: GGGTAC
- 6-mer SELEX enrichment z-score (IMP3 KH1-4): -0.349
- 6-mer SELEX enrichment z-score (IMP3 RRM1-2): 0.282
- 6-mer SELEX enrichment z-score (IMP3 full-length): 0.227
- 6-mer SELEX enrichment z-score (IMP3 KH3-4): -0.132

Sequence: CTAGAA
- 6-mer SELEX enrichment z-score (IMP3 KH1-4): -0.036
- 6-mer SELEX enrichment z-score (IMP3 RRM1-2): -0.88
- 6-mer SELEX enrichment z-score (IMP3 full-length): -0.715
- 6-mer SELEX enrichment z-score (IMP3 KH3-4): 0.114

Sequence: TGTGAG
- 6-mer SELEX enrichment z-score (IMP3 KH1-4): 0.194
- 6-mer SELEX enrichment z-score (IMP3 RRM1-2): -0.164
- 6-mer SELEX enrichment z-score (IMP3 full-length): -0.224
- 6-mer SELEX enrichment z-score (IMP3 KH3-4): 0.269

Sequence: CTATTG
- 6-mer SELEX enrichment z-score (IMP3 KH1-4): 0.346
- 6-mer SELEX enrichment z-score (IMP3 RRM1-2): 0.184
- 6-mer SELEX enrichment z-score (IMP3 full-length): -0.09
- 6-mer SELEX enrichment z-score (IMP3 KH3-4): 0.39

Sequence: GTCATA
- 6-mer SELEX enrichment z-score (IMP3 KH1-4): 0.526
- 6-mer SELEX enrichment z-score (IMP3 RRM1-2): 0.41
- 6-mer SELEX enrichment z-score (IMP3 full-length): 0.62
- 6-mer SELEX enrichment z-score (IMP3 KH3-4): 0.554

Sequence: GACACC
- 6-mer SELEX enrichment z-score (IMP3 KH1-4): -0.826
- 6-mer SELEX enrichment z-score (IMP3 RRM1-2): -0.183
- 6-mer SELEX enrichment z-score (IMP3 full-length): -0.629
- 6-mer SELEX enrichment z-score (IMP3 KH3-4): -1.54

Sequence: AACAGA
- 6-mer SELEX enrichment z-score (IMP3 KH1-4): 0.529
- 6-mer SELEX enrichment z-score (IMP3 RRM1-2): 0.219
- 6-mer SELEX enrichment z-score (IMP3 full-length): 0.687
- 6-mer SELEX enrichment z-score (IMP3 KH3-4): 1.02

Sequence: TCTATC
- 6-mer SELEX enrichment z-score (IMP3 KH1-4): 0.477
- 6-mer SELEX enrichment z-score (IMP3 RRM1-2): 0.505
- 6-mer SELEX enrichment z-score (IMP3 full-length): 0.237
- 6-mer SELEX enrichment z-score (IMP3 KH3-4): 0.318

Sequence: CTTTGT
- 6-mer SELEX enrichment z-score (IMP3 KH1-4): 0.152
- 6-mer SELEX enrichment z-score (IMP3 RRM1-2): 0.329
- 6-mer SELEX enrichment z-score (IMP3 full-length): -0.051
- 6-mer SELEX enrichment z-score (IMP3 KH3-4): 0.2

Sequence: CAACTA
- 6-mer SELEX enrichment z-score (IMP3 KH1-4): 0.73
- 6-mer SELEX enrichment z-score (IMP3 RRM1-2): 0.253
- 6-mer SELEX enrichment z-score (IMP3 full-length): -0.099
- 6-mer SELEX enrichment z-score (IMP3 KH3-4): 0.576

Sequence: AGGGCC
- 6-mer SELEX enrichment z-score (IMP3 KH1-4): -0.418
- 6-mer SELEX enrichment z-score (IMP3 RRM1-2): -0.018
- 6-mer SELEX enrichment z-score (IMP3 full-length): 0.221
- 6-mer SELEX enrichment z-score (IMP3 KH3-4): -0.218

Sequence: ACACAG
- 6-mer SELEX enrichment z-score (IMP3 KH1-4): 1.55
- 6-mer SELEX enrichment z-score (IMP3 RRM1-2): 3.17
- 6-mer SELEX enrichment z-score (IMP3 full-length): 3.18
- 6-mer SELEX enrichment z-score (IMP3 KH3-4): 0.958

Sequence: GCTCCA
- 6-mer SELEX enrichment z-score (IMP3 KH1-4): 0.123
- 6-mer SELEX enrichment z-score (IMP3 RRM1-2): 0.206
- 6-mer SELEX enrichment z-score (IMP3 full-length): 0.422
- 6-mer SELEX enrichment z-score (IMP3 KH3-4): -0.183

Sequence: CCTGTA
- 6-mer SELEX enrichment z-score (IMP3 KH1-4): -0.175
- 6-mer SELEX enrichment z-score (IMP3 RRM1-2): -0.304
- 6-mer SELEX enrichment z-score (IMP3 full-length): -0.574
- 6-mer SELEX enrichment z-score (IMP3 KH3-4): -0.377

Sequence: GGCCGG
- 6-mer SELEX enrichment z-score (IMP3 KH1-4): 0.587
- 6-mer SELEX enrichment z-score (IMP3 RRM1-2): -0.179
- 6-mer SELEX enrichment z-score (IMP3 full-length): 1.13
- 6-mer SELEX enrichment z-score (IMP3 KH3-4): 0.494

Sequence: CCCTGT
- 6-mer SELEX enrichment z-score (IMP3 KH1-4): -0.243
- 6-mer SELEX enrichment z-score (IMP3 RRM1-2): -0.348
- 6-mer SELEX enrichment z-score (IMP3 full-length): -0.426
- 6-mer SELEX enrichment z-score (IMP3 KH3-4): -0.624

Sequence: CCCTCG
- 6-mer SELEX enrichment z-score (IMP3 KH1-4): -1.14
- 6-mer SELEX enrichment z-score (IMP3 RRM1-2): -0.158
- 6-mer SELEX enrichment z-score (IMP3 full-length): -0.51
- 6-mer SELEX enrichment z-score (IMP3 KH3-4): -1.34

Sequence: TGTGTT
- 6-mer SELEX enrichment z-score (IMP3 KH1-4): 0.169
- 6-mer SELEX enrichment z-score (IMP3 RRM1-2): 0.434
- 6-mer SELEX enrichment z-score (IMP3 full-length): -0.139
- 6-mer SELEX enrichment z-score (IMP3 KH3-4): 0.236

Sequence: CTCGCG
- 6-mer SELEX enrichment z-score (IMP3 KH1-4): -1.38
- 6-mer SELEX enrichment z-score (IMP3 RRM1-2): 0.186
- 6-mer SELEX enrichment z-score (IMP3 full-length): -0.143
- 6-mer SELEX enrichment z-score (IMP3 KH3-4): -1.17

Sequence: GGTCTA
- 6-mer SELEX enrichment z-score (IMP3 KH1-4): 0.051
- 6-mer SELEX enrichment z-score (IMP3 RRM1-2): 0.197
- 6-mer SELEX enrichment z-score (IMP3 full-length): 0.116
- 6-mer SELEX enrichment z-score (IMP3 KH3-4): 0.263
